Reference: publication PMC3630055, “Bovine HEXIM1 inhibits bovine immunodeficiency virus replication through regulating BTat-mediated transactivation” (Veterinary Research, 2013)
These are yes or no findings as the source states them, for the method shown. Binding seen in cells or lysates may run through a third protein. Some results given as binding are weak or reduced against the parent protein; the word gives no strength. Sequences can lack the tags named with a protein.

The chains behind the UniProt entries cited, without tags or fusion partners. Residues count along the entry.
UniProt Q6T8E9, residues 1-272: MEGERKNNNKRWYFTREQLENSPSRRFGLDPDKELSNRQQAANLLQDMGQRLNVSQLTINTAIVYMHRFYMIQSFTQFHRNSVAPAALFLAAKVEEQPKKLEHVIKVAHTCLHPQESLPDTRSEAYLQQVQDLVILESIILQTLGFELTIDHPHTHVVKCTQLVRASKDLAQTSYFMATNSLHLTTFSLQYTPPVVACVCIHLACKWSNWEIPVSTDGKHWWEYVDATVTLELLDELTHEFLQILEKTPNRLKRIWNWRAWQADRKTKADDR

T1: HA-BHEXIM1 (bovine hexamethylene bisacetamide (HMBA)-induced protein 1), 1-320 aa (full-length) (bovine) (UniProt Q0X0C4)
T1 sequence: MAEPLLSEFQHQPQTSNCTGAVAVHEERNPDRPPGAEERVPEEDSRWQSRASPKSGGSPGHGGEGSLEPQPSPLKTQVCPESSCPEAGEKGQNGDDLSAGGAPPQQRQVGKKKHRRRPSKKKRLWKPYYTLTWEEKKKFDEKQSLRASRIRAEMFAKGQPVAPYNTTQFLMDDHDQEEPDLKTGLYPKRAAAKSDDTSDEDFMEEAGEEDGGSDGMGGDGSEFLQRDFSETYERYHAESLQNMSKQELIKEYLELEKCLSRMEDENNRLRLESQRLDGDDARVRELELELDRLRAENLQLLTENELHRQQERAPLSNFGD

T2: HA-BHEXIM1 1-140 (bovine) (UniProt Q0X0C4)
T2 sequence: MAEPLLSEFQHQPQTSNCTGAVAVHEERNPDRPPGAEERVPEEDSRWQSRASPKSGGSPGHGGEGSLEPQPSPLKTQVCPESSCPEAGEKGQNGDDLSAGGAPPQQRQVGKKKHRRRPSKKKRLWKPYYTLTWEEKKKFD

T3: HA-BHEXIM1 104-320 (bovine) (UniProt Q0X0C4)
T3 sequence: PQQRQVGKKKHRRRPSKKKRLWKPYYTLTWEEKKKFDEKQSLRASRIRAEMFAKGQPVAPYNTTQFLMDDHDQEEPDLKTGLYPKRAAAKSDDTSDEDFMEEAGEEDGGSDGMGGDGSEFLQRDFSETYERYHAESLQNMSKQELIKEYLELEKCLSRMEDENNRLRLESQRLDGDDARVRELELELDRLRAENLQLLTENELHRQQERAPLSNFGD

T4: HA-BHEXIM1 Δ(108-140) (bovine) (UniProt Q0X0C4)
T4 sequence: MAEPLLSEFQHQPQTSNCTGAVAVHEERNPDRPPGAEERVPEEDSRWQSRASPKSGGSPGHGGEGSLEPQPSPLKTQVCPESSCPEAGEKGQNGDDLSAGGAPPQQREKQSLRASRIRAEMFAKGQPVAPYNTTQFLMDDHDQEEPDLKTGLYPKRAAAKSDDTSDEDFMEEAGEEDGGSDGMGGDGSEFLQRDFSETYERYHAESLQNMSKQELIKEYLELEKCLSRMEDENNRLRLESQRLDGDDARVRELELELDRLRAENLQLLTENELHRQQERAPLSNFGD


How the values were obtained:
Experiment in all cases: co-IP; 293 T cells co-transfected with HA-BHEXIM1 (or truncations) and Flag-B-cyclin T1; lysis in 50 mM Tris-HCl pH 8.0, 150 mM NaCl, 1% NP-40; immunoprecipitation with anti-HA (or, reciprocally, anti-Flag) at 4°C, immunoblot for the other tag
[1] = molecular target: T1, HA-BHEXIM1 (bovine hexamethylene bisacetamide (HMBA)-induced protein 1), 1-320 aa (full-length) (bovine)
[2] = molecular target: T2, HA-BHEXIM1 1-140 (bovine)
[3] = molecular target: T3, HA-BHEXIM1 104-320 (bovine)
[4] = molecular target: T4, HA-BHEXIM1 Δ(108-140) (bovine)
[5] = molecular target: Flag-B-cyclin T1 (aa residues 1-272 of bovine cyclin T1) (bovine) (UniProt Q6T8E9)

| Molecule | binding [1] | binding [2] | binding [3] | binding [4] | binding [5] |
| --- | --- | --- | --- | --- | --- |
| Flag-B-cyclin T1 (aa residues 1-272 of bovine cyclin T1) (from UniProt Q6T8E9 1-272) (domain or fragment) | binds | no binding | binds | no binding |  |
| HA-BHEXIM1 (bovine hexamethylene bisacetamide (HMBA)-induced protein 1), 1-320 aa (full-length) (protein, UniProt Q0X0C4 1-320) MAEPLLSEFQHQPQTSNCTGAVAVHEERNPDRPPGAEERVPEEDSRWQSRASPKSGGSPGHGGEGSLEPQPSPLKTQVCPESSCPEAGEKGQNGDDLSAGGAPPQQRQVGKKKHRRRPSKKKRLWKPYYTLTWEEKKKFDEKQSLRASRIRAEMFAKGQPVAPYNTTQFLMDDHDQEEPDLKTGLYPKRAAAKSDDTSDEDFMEEAGEEDGGSDGMGGDGSEFLQRDFSETYERYHAESLQNMSKQELIKEYLELEKCLSRMEDENNRLRLESQRLDGDDARVRELELELDRLRAENLQLLTENELHRQQERAPLSNFGD |  |  |  |  | binds |
